# From a collection of fitness landscapes (doi:10.1038/s41467-024-54723-y)
# The full ranking holds about 18,000 sequences; the median of “TetR repression strength (sort-seq, GFP reporter)” is about 0.23, and the highest 2% start at about 0.68. The list shows a part of the results.
# Molecular target: TetR (class B, Tn10) (UniProt P04483)
# Assay: TetR repression strength (sort-seq, GFP reporter) (relative to tetO2 = 1); higher = stronger repression
# Details: E. coli
# In short: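 E. coli SIG10-MAX carried a low-copy plasmid library with eight randomized operator positions between a constitutive promoter and sfGFP, with TetR constitutively expressed. Cells grew 5 h at 37 °C in LB with 50 µg/mL chloramphenicol, then 10^6 cells were FACS-sorted into 13 fluorescence bins, each Illumina-sequenced. Repression strength is the top bin index plus one minus the read-weighted mean bin, divided by the wild-type operator value. Three independent transformations; variants with ≥30 reads in all replicates and CV ≤0.5 were averaged.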
# Sequence of UniProt P04483 (P04483 whole entry): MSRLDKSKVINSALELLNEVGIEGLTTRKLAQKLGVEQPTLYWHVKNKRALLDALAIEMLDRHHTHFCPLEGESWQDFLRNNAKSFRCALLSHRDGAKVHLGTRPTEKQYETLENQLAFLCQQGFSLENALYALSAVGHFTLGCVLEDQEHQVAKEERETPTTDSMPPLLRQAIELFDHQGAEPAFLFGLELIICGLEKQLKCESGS
row,Sequence,TetR repression strength
1,TCCCGGTTAGTATATGAGA,0.0644
2,TCCCGAACAGTCTGTGAGA,0.125
3,TCCCAGGTAGTCCCGGAGA,0.168
4,TCCCGGTCAGTCACTGAGA,0.312
5,TCCCAAACAGTTACTGAGA,0.276
6,TCCCGAGGAGTGGACGAGA,0.186
7,TCCCGATCAGTCCTCGAGA,0.233
8,TCCCCCGGAGTGGACGAGA,0.193
9,TCCCATGGAGTTAGGGAGA,0.223
10,TCCCGTGTAGTCATAGAGA,0.165
11,TCCCGAGCAGTTAGAGAGA,0.202
12,TCCCGAGCAGTGCATGAGA,0.223
13,TCCCATATAGTTATGGAGA,0.0304
14,TCCCGGGCAGTCGTGGAGA,0.285
15,TCCCCGGAAGTGCGTGAGA,0.147
16,TCCCTTTCAGTTCCTGAGA,0.297
17,TCCCCGGGAGTAGGTGAGA,0.11
18,TCCCGCGTAGTCAGTGAGA,0.0931
19,TCCCCTGTAGTGTCTGAGA,0.148
20,TCCCAAGTAGTTCTTGAGA,0.0829
21,TCCCGGTAAGTGAGAGAGA,0.502
22,TCCCGGCGAGTGCCTGAGA,0.0396
23,TCCCTTGCAGTCAAAGAGA,0.0958
24,TCCCGAGGAGTTTATGAGA,0.374
25,TCCCGGGCAGTGGGAGAGA,0.22
26,TCCCGCGGAGTAGTGGAGA,0.15

row,Sequence,TetR repression strength
1,TCCCGGGCAGTCGGGGAGA,0.284
2,TCCCCCCAAGTGGTTGAGA,0.155
3,TCCCGGATAGTACTTGAGA,0.406
4,TCCCTTAGAGTTTGTGAGA,0.256
5,TCCCTTGAAGTGTCTGAGA,0.616
6,TCCCCACTAGTACGTGAGA,0.363
7,TCCCGCTTAGTCGTGGAGA,0.209
8,TCCCTGTTAGTGCAGGAGA,0.104
9,TCCCTATAAGTCGTAGAGA,0.503
10,TCCCCCGCAGTAAGCGAGA,0.153
11,TCCCAGGGAGTGTAGGAGA,0.21
12,TCCCTAGGAGTTATTGAGA,0.218
13,TCCCATACAGTTGGAGAGA,0.37
14,TCCCATTAAGTCCGCGAGA,0.44
15,TCCCAAGCAGTGTTGGAGA,0.232
16,TCCCGTGGAGTGTACGAGA,0.19
17,TCCCATTGAGTGCGGGAGA,0.192
18,TCCCCTAGAGTGGTAGAGA,0.634
19,TCCCGCAGAGTCGGTGAGA,0.133
20,TCCCTGGGAGTACTCGAGA,0.0787
21,TCCCCAGCAGTTTAGGAGA,0.207
22,TCCCCATCAGTCCTGGAGA,0.144
23,TCCCTGACAGTGCCAGAGA,0.145
24,TCCCAATGAGTCTAGGAGA,0.23
25,TCCCTGAAAGTATGGGAGA,0.256
